From the supplement of paper PMC9588766
Counter-ions that a name gives are not always drawn. Whole data set: some 1,900 compounds, median “cell viability of compound + 1 nM pemigatinib relative to pemigatinib-only (DMSO) wells” near 0.95, cut for the lowest 2% near 0.22. Some of the results follow.

The compounds below were run on PDC-DUC18828 (assay: cell viability of compound + 1 nM pemigatinib relative to pemigatinib-only (DMSO) wells (fraction); PDC-DUC18828 is a patient-derived cholangiocarcinoma cell line; higher = less growth inhibition). Conditions: first compound 1 µM; pemigatinib concentration 1 nM; 72 h.
Method: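 Selleck Bioactive library screen in the patient-derived FGFR2 fusion-positive ICC cell line PDC-DUC18828 (500 cells/well). Each compound was tested at 1 uM with 1 nM pemigatinib, in triplicate, for 72 h. Viability was read by CellTiter-Glo and normalised to plate DMSO controls. Value is the paper's averaged normalised viability.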

Compound | cell viability
NC(N)=Nc1nc(CSCC/C(N)=N/S(N)(=O)=O)cs1 [Famotidine] + CCN1C(=O)N(c2c(F)c(OC)cc(OC)c2F)Cc2cnc3[nH]c(CN4CCOCC4)cc3c21 [pemigatinib] | 1.05
CC1=C(/C=C/C(C)=C/C=C/C(C)=C\C(=O)O)C(C)(C)CCC1 [Isotretinoin] + CCN1C(=O)N(c2c(F)c(OC)cc(OC)c2F)Cc2cnc3[nH]c(CN4CCOCC4)cc3c21 [pemigatinib] | 0.937
CC/C(=C(/CC)c1ccc(O)cc1)c1ccc(O)cc1 [Diethylstilbestrol] + CCN1C(=O)N(c2c(F)c(OC)cc(OC)c2F)Cc2cnc3[nH]c(CN4CCOCC4)cc3c21 [pemigatinib] | 0.928
Cc1ccc([N+](=O)[O-])cc1S(=O)(=O)N(C)/N=C/c1cnc2ccc(Br)cn12 + CCN1C(=O)N(c2c(F)c(OC)cc(OC)c2F)Cc2cnc3[nH]c(CN4CCOCC4)cc3c21 [pemigatinib] | 0.902
Cc1noc(C)c1-c1ccc(-c2cc(C(N)=O)c(NC(N)=O)s2)c(O[C@H]2CCNC2)c1 + CCN1C(=O)N(c2c(F)c(OC)cc(OC)c2F)Cc2cnc3[nH]c(CN4CCOCC4)cc3c21 [pemigatinib] | 0.963
CCCCCCCc1ccc(CCc2cccc(O)c2C(=O)O)cc1 + CCN1C(=O)N(c2c(F)c(OC)cc(OC)c2F)Cc2cnc3[nH]c(CN4CCOCC4)cc3c21 [pemigatinib] | 1
Cc1ccccc1C(OCCN(C)C)c1ccccc1 (stereo not drawn) [Orphenadrine Citrate] + CCN1C(=O)N(c2c(F)c(OC)cc(OC)c2F)Cc2cnc3[nH]c(CN4CCOCC4)cc3c21 [pemigatinib] | 1.02
O=C1C(O)=C([C@H]2CC[C@H](c3ccc(Cl)cc3)CC2)C(=O)c2ccccc21 [Atovaquone] + CCN1C(=O)N(c2c(F)c(OC)cc(OC)c2F)Cc2cnc3[nH]c(CN4CCOCC4)cc3c21 [pemigatinib] | 0.871
Cc1nn(C)c2c1C(c1ccc(C(F)(F)F)cc1)C(C#N)=C(N)O2 (stereo not drawn) + CCN1C(=O)N(c2c(F)c(OC)cc(OC)c2F)Cc2cnc3[nH]c(CN4CCOCC4)cc3c21 [pemigatinib] | 0.921
CNCc1cc(-c2ccccc2F)n(S(=O)(=O)c2cccnc2)c1 + CCN1C(=O)N(c2c(F)c(OC)cc(OC)c2F)Cc2cnc3[nH]c(CN4CCOCC4)cc3c21 [pemigatinib] | 1.03
COc1c2ccoc2cc2oc(=O)ccc12 [Bergapten] + CCN1C(=O)N(c2c(F)c(OC)cc(OC)c2F)Cc2cnc3[nH]c(CN4CCOCC4)cc3c21 [pemigatinib] | 0.948
CCCCCCCCCCCC1=C(O)C(=O)C=C(O)C1=O [Embelin] + CCN1C(=O)N(c2c(F)c(OC)cc(OC)c2F)Cc2cnc3[nH]c(CN4CCOCC4)cc3c21 [pemigatinib] | 0.936
O=C1CCc2ccc(OCCCCN3CCN(c4cccc(Cl)c4Cl)CC3)cc2N1 [Aripiprazole] + CCN1C(=O)N(c2c(F)c(OC)cc(OC)c2F)Cc2cnc3[nH]c(CN4CCOCC4)cc3c21 [pemigatinib] | 0.977
CC1(C)CNc2cc(NC(=O)c3cccnc3NCc3ccncc3)ccc21 [Motesanib Diphosphate (AMG-706)] + CCN1C(=O)N(c2c(F)c(OC)cc(OC)c2F)Cc2cnc3[nH]c(CN4CCOCC4)cc3c21 [pemigatinib] | 0.946
CC[C@@H]1/C=C(\C)C[C@H](C)C[C@H](OC)[C@H]2O[C@@](O)(C(=O)C(=O)N3CCCC[C@H]3C(=O)O[C@H](/C(C)=C/[C@@H]3CC[C@@H](O)[C@H](OC)C3)[C@H](C)[C@@H](O)CC1=O)[C@H](C)C[C@@H]2OC [Ascomycin (FK520)] + CCN1C(=O)N(c2c(F)c(OC)cc(OC)c2F)Cc2cnc3[nH]c(CN4CCOCC4)cc3c21 [pemigatinib] | 0.947
COC(=O)C1=C(C)NC(C)=C(C(=O)OCC(C)C)C1c1ccccc1[N+](=O)[O-] (stereo not drawn) [Nisoldipine] + CCN1C(=O)N(c2c(F)c(OC)cc(OC)c2F)Cc2cnc3[nH]c(CN4CCOCC4)cc3c21 [pemigatinib] | 1.05
Oc1cc(O)c(Cl)cn1 [Gimeracil] + CCN1C(=O)N(c2c(F)c(OC)cc(OC)c2F)Cc2cnc3[nH]c(CN4CCOCC4)cc3c21 [pemigatinib] | 0.96
COc1ccc2cc(OCC3(C(=O)O)CN(C(=O)c4ccc(F)cc4)C3)ccc2c1 + CCN1C(=O)N(c2c(F)c(OC)cc(OC)c2F)Cc2cnc3[nH]c(CN4CCOCC4)cc3c21 [pemigatinib] | 0.967
COCCOc1ccc2c(c1)ncn2-c1ccc2cccc(N3CCC(N)CC3)c2n1 + CCN1C(=O)N(c2c(F)c(OC)cc(OC)c2F)Cc2cnc3[nH]c(CN4CCOCC4)cc3c21 [pemigatinib] | 1.11

Compound | cell viability
Cc1cc(Nc2cc(N3CCN(C)CC3)nc(/C=C/c3ccccc3)n2)n[nH]1 + CCN1C(=O)N(c2c(F)c(OC)cc(OC)c2F)Cc2cnc3[nH]c(CN4CCOCC4)cc3c21 [pemigatinib] | 0.447
COc1ccc(C2CC(c3ccccc3)=NN2c2ccc(S(N)(=O)=O)cc2)cc1 (stereo not drawn) + CCN1C(=O)N(c2c(F)c(OC)cc(OC)c2F)Cc2cnc3[nH]c(CN4CCOCC4)cc3c21 [pemigatinib] | 0.978
Cc1cc(-c2ccc(CC(=O)Nc3ccc(-c4cccnc4)cc3)cc2)ccn1 + CCN1C(=O)N(c2c(F)c(OC)cc(OC)c2F)Cc2cnc3[nH]c(CN4CCOCC4)cc3c21 [pemigatinib] | 1.03
OC[C@H]1O[C@@H](c2ccc(Cl)c(Cc3ccc(O[C@H]4CCOC4)cc3)c2)[C@H](O)[C@@H](O)[C@@H]1O + CCN1C(=O)N(c2c(F)c(OC)cc(OC)c2F)Cc2cnc3[nH]c(CN4CCOCC4)cc3c21 [pemigatinib] | 0.972
CN(C)c1cccc(-c2c3c(=O)n(-c4ccccc4Cl)[nH]c3cc(=O)n2C)c1 + CCN1C(=O)N(c2c(F)c(OC)cc(OC)c2F)Cc2cnc3[nH]c(CN4CCOCC4)cc3c21 [pemigatinib] | 0.966
COC(=O)C1=C(C)NC(C)=C(C(=O)OCCN(C)Cc2ccccc2)C1c1cccc([N+](=O)[O-])c1 (stereo not drawn) [Nicardipine HCl] + CCN1C(=O)N(c2c(F)c(OC)cc(OC)c2F)Cc2cnc3[nH]c(CN4CCOCC4)cc3c21 [pemigatinib] | 1
Cc1nc(C#Cc2ccnc(Cl)c2)c(C)n1-c1ccc(OC(F)(F)F)cc1 + CCN1C(=O)N(c2c(F)c(OC)cc(OC)c2F)Cc2cnc3[nH]c(CN4CCOCC4)cc3c21 [pemigatinib] | 0.955
O=C1[C@H](CC[C@H](O)c2ccc(F)cc2)[C@@H](c2ccc(O)cc2)N1c1ccc(F)cc1 [Ezetimibe] + CCN1C(=O)N(c2c(F)c(OC)cc(OC)c2F)Cc2cnc3[nH]c(CN4CCOCC4)cc3c21 [pemigatinib] | 0.991
c1cc(-c2cnn3cc(-c4ccc(OCCN5CCCCC5)cc4)cnc23)ccn1 [Dorsomorphin (Compound C)] + CCN1C(=O)N(c2c(F)c(OC)cc(OC)c2F)Cc2cnc3[nH]c(CN4CCOCC4)cc3c21 [pemigatinib] | 0.931
CN1CCC(NC(=O)c2cc(-c3c(O)cc(O)cc3Oc3ccc([N+](=O)[O-])cc3)on2)CC1 + CCN1C(=O)N(c2c(F)c(OC)cc(OC)c2F)Cc2cnc3[nH]c(CN4CCOCC4)cc3c21 [pemigatinib] | 0.331
Cc1cnc(C(=O)NCCc2ccc(S(=O)(=O)NC(=O)NC3CCCCC3)cc2)cn1 [Glipizide] + CCN1C(=O)N(c2c(F)c(OC)cc(OC)c2F)Cc2cnc3[nH]c(CN4CCOCC4)cc3c21 [pemigatinib] | 1.09
Cc1cc(-c2ncc(CC(=O)Nc3ccc(-c4cnccn4)cn3)cc2C)ccn1 + CCN1C(=O)N(c2c(F)c(OC)cc(OC)c2F)Cc2cnc3[nH]c(CN4CCOCC4)cc3c21 [pemigatinib] | 0.959
Nc1ncnc2c1C(=O)N(c1ccc([C@H]3CC[C@H](CC(=O)O)CC3)cc1)CCO2 + CCN1C(=O)N(c2c(F)c(OC)cc(OC)c2F)Cc2cnc3[nH]c(CN4CCOCC4)cc3c21 [pemigatinib] | 1.02
CCCCCOC(=O)Nc1nc(=O)n([C@@H]2O[C@H](C)[C@@H](O)[C@H]2O)cc1F [Capecitabine] + CCN1C(=O)N(c2c(F)c(OC)cc(OC)c2F)Cc2cnc3[nH]c(CN4CCOCC4)cc3c21 [pemigatinib] | 1.07
CCCCNc1ccc(C(=O)OCCN(C)C)cc1 [Tetracaine HCl] + CCN1C(=O)N(c2c(F)c(OC)cc(OC)c2F)Cc2cnc3[nH]c(CN4CCOCC4)cc3c21 [pemigatinib] | 0.934
CCN(CC)CCOc1ccc(C(=C(Cl)c2ccccc2)c2ccccc2)cc1 [Clomifene citrate] + CCN1C(=O)N(c2c(F)c(OC)cc(OC)c2F)Cc2cnc3[nH]c(CN4CCOCC4)cc3c21 [pemigatinib] | 0.886
COc1ncc(-c2ccc3nccc(-c4ccnnc4)c3c2)cc1NS(=O)(=O)c1ccc(F)cc1F + CCN1C(=O)N(c2c(F)c(OC)cc(OC)c2F)Cc2cnc3[nH]c(CN4CCOCC4)cc3c21 [pemigatinib] | 0.201
COc1cc2ncnc(Oc3ccc(CC(=O)Nc4cnn(C(C)C)c4)cc3)c2cc1OC + CCN1C(=O)N(c2c(F)c(OC)cc(OC)c2F)Cc2cnc3[nH]c(CN4CCOCC4)cc3c21 [pemigatinib] | 0.932
CN1CCC(=C2c3ccccc3CCc3sccc32)CC1 [Pizotifen Malate] + CCN1C(=O)N(c2c(F)c(OC)cc(OC)c2F)Cc2cnc3[nH]c(CN4CCOCC4)cc3c21 [pemigatinib] | 0.949
